Measured values: PubChem BioAssay AID504333 (National Center for Advancing Translational Sciences (NCATS), 2011)
“And” between values parts separate entries of the source, which are not always exact repeats. Identical values can stand only once. The campaign covered roughly 360,000 compounds. About 16,000 (4.4%) were called active. Inconclusive results, whose numbers are uncertain, are shown with a selection of clear calls. Calls come from the whole dose curve; as a rule, active = well fitted inhibition curve with a large enough effect; inconclusive = small, poorly fitted or top-dose-only effect; inactive = no such curve, though single readings can be large or run the other way. Potencies beside an inconclusive call are fits to weak or partial responses and may not hold up.

biological target: Bromodomain adjacent to zinc finger domain protein 2B (Homo sapiens) (UniProt Q9UIF8); test: qHTS Assay for Inhibitors of BAZ2B; settings: AlphaScreen BAZ2B-H3K14Ac peptide displacement; series mostly up to 114 µM; note: nearly all actives have a fitted effect of over 60% in size
Outline: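 BAZ2B 50 nM plus b-H3(5-23)K14Ac 50 nM, PBS pH 7.4/0.01% Tween-20, 30 min RT; compound added (max 110 uM), 30 min RT; streptavidin donor/Ni-chelate acceptor beads 10 ug/mL final, 20 min dark; AlphaScreen read.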
Potency is the fitted concentration of half-maximal effect; tags give direction and shape of the fitted curve.

Chain of UniProt Q9UIF8 (Q9UIF8 whole entry, looked up, the tested form may be a part): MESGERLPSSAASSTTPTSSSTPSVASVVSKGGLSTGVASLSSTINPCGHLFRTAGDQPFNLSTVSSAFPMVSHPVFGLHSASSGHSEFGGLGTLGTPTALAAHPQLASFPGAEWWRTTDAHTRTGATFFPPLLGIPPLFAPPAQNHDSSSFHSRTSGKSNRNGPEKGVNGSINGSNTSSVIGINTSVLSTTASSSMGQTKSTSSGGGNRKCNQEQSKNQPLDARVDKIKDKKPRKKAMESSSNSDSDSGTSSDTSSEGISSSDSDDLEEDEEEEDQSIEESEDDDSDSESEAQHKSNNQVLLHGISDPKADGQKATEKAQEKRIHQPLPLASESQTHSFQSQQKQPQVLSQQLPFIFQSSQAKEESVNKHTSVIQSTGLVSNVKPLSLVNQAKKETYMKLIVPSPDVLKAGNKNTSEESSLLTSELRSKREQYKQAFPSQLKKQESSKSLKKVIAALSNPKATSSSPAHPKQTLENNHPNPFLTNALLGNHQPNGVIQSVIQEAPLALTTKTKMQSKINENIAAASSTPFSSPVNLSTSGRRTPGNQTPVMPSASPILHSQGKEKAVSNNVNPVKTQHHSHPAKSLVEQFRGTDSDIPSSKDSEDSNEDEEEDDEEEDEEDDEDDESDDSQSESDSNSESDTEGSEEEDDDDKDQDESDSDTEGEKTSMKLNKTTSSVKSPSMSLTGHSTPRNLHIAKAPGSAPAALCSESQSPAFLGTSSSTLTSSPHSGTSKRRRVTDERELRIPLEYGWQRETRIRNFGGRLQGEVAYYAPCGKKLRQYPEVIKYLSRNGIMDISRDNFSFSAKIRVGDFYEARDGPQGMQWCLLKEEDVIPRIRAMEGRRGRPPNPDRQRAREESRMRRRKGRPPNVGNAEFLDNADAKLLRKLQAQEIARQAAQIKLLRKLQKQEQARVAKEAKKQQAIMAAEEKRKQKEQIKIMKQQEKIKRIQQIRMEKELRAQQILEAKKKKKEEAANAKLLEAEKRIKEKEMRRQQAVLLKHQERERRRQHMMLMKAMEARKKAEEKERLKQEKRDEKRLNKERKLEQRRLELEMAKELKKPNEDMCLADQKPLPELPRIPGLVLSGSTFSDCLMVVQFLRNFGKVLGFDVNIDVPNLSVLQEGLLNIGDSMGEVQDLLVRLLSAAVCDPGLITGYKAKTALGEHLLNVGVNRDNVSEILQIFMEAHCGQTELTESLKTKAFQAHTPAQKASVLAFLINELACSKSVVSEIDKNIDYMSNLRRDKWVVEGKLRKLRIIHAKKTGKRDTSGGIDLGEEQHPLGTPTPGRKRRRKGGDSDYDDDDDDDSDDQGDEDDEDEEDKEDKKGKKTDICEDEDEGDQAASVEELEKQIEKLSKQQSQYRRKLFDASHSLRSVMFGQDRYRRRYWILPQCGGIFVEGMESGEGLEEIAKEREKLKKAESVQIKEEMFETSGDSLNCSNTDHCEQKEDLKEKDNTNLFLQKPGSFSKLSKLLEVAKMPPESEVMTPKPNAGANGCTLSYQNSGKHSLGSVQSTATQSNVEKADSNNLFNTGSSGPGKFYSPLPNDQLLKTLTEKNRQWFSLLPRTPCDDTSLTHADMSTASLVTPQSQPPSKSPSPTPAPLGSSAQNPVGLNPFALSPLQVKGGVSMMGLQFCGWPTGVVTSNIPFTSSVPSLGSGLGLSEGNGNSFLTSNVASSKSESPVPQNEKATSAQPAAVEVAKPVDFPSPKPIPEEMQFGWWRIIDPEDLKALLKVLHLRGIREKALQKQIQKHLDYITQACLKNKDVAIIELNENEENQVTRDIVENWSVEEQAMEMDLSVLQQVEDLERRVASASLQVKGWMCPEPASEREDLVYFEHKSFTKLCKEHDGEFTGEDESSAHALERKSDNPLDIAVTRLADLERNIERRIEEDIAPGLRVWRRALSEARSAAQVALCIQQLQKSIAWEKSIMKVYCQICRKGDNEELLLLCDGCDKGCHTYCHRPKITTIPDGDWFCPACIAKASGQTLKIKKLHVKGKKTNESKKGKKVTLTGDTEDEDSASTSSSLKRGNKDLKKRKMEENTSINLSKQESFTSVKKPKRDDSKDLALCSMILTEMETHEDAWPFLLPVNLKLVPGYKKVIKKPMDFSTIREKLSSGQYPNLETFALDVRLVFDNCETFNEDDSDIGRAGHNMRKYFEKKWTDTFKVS

Compound | Potency
O=C(CNC(=O)c1ccncc1)N/N=C/c1ccc(O)cc1O | inconclusive: 89.1 µM [inhibitor, single point]
Cc1ccc(NC(=O)CCN2CCN(C/C=C/c3ccccc3)CC2)cc1C | inconclusive: 79.4 µM [inhibitor, single point]
C=CCNC(=S)N/N=C/c1ccc(-c2ccc(OC)cc2)o1 | inconclusive: 79.4 µM [inhibitor, single point]
CCOC(=O)c1c(NC(=O)CSc2nc3cccnc3n2C)sc(C(C)=O)c1C | inactive
Cc1nn(-c2ccccc2)c(N2CCCC2)c1/C=N/Nc1ccc(S(=O)(=O)Nc2ccccc2)cc1[N+](=O)[O-] | inconclusive: 89.1 µM [inhibitor, partial curve, poor fit]
Cc1[nH]c(C)c(S(=O)(=O)N2CCN(c3cccc(C(F)(F)F)c3)CC2)c1C(=O)N1CCCC1 | inconclusive: 70.8 µM [inhibitor, single point]
CCc1cccc(NC(=O)CN(C)S(=O)(=O)c2ccc3[nH]c4c(c3c2)CCCC4)c1 | inconclusive: 39.8 µM [inhibitor, full curve]
CCc1ccccc1-n1c(N)c(C(=O)OC)c2nc3ccccc3nc21 | inactive
Cc1ccc2nc(SC(C)C(=O)NCc3ccco3)[nH]c2c1 (stereo not drawn) | inconclusive: 79.4 µM [inhibitor, single point]
CCCC1CCC(=NNC(=S)NCCc2ccccc2)CC1 (stereo not drawn) | active: 10 µM
COc1ccc(NC(=O)C(=O)c2cn(CC(=O)N3CCCC3)c3ccccc23)cc1 | inconclusive: 79.4 µM [inhibitor, single point]
Cn1c(=O)c2sccc2n2c(CCCC(=O)NCc3ccc4c(c3)OCO4)nnc12 | inconclusive: 89.1 µM [inhibitor, single point]
CCc1ccc(-c2csc(NC(=O)C3=NN(c4ccccc4)C(=O)CC3)n2)cc1 | inactive
Cc1ccc(-c2cnn(-c3cccc([N+](=O)[O-])c3)c2N)cc1 | inactive
Cc1ccc(-c2csc(NC(=O)c3ccno3)n2)cc1 | inconclusive: 50.1 µM [inhibitor, partial curve]
N#Cc1c(/N=C/c2cccs2)sc2c1CCCCC2 | active: 8.91 µM
COc1ccc(N2CCC(CNC(=S)Nc3c(C)cccc3C)C2)cc1 (stereo not drawn) | active: 39.8 µM
C/C(CCc1ccccc1)=N\NC(=S)NCCc1ccccc1 | active: 39.8 µM
COc1cccc(C(c2c(NC(=O)c3ccccc3)sc(C)c2C)N2CCN(C)CC2)c1 (stereo not drawn) | inconclusive: 44.7 µM [inhibitor, partial curve]
Cc1c(C(=O)N(C)C)sc2c1c(=O)n(-c1ccc(Cl)cc1)c(=O)n2CC(=O)C(C)(C)C | inactive
COC(=O)C1Cc2c([nH]c3ccccc23)C(C)N1 (stereo not drawn) | inactive
C#CCOCCOCCOCCNc1nc(N2CCN(C(=O)[C@H]([C@@H](C)CC)n3cc([C@@H](N)CC(C)C)nn3)CC2)nc(N2CCN(C(=O)[C@H](Cc3cc4ccccc4[nH]3)n3cc([C@@H](N)C(C)CC)nn3)CC2)n1 (stereo partly drawn) | active: 50.1 µM
Cc1ccccc1C(=O)NC(=S)Nc1ccc(Cc2ccncc2)cc1 | inconclusive: 100 µM [inhibitor, single point]

Compound | Potency
O=C(NNC(=O)c1cccc(-n2cccc2)c1)c1ccc(F)cc1 | active: 39.8 µM
COc1ccc(-n2c(=O)c3sc4ccccc4c3n(Cc3ccccc3C)c2=O)cc1OC | inactive
CC1CC(C)CN(C(=O)c2ccccc2Nc2ccc(SC(F)F)cc2)C1 (stereo not drawn) | inactive
COc1ccc(/C=N/NC(=S)Nc2ccccc2)cc1 | inconclusive: 70.8 µM [inhibitor, single point]
COc1ccc(-n2nc([N+](=O)[O-])c(=NCCc3ccc(OC)c(OC)c3)n2O)cc1 | inconclusive: 44.7 µM [inhibitor, partial curve]
N/C(Cc1ccc([N+](=O)[O-])cc1)=N\OC(=O)COc1cccc2ccccc12 | inconclusive: 89.1 µM [inhibitor, single point]
COc1ccc2sc(N(CCCN(C)C)C(=O)c3ccc(S(=O)(=O)N4CCCc5ccccc54)cc3)nc2c1 | active: 28.2 µM
COc1ccc2c(CC(=O)Nc3ccc(N4CCOCC4)cc3)coc2c1 | inconclusive: 70.8 µM [inhibitor, single point]
CCc1ccccc1NC(=O)Cn1c(=O)ccc2cc(S(=O)(=O)N3CCCC3)ccc21 | inactive
O=[N+]([O-])c1ccc(NC(=S)N/C(=N/CS(=O)(=O)c2ccccc2)c2ccccc2)cc1 | inconclusive: 89.1 µM [inhibitor, single point]
CCc1ccccc1Nc1sc(C(=O)c2cccc(OC)c2)c(N)c1S(=O)(=O)c1ccccc1 | inconclusive: 22.4 µM [inhibitor, full curve]
Cc1ccc([N+](=O)[O-])cc1S(=O)(=O)Nc1ccc(C(=O)N2CCN(C(=O)c3ccco3)CC2)cc1 | inconclusive: 89.1 µM [inhibitor, single point]
CCCCOc1ccc(C(=O)NCc2nnnn2-c2ccc(C)c(C)c2)cc1 | inactive
O=C(/C=C/Nc1ccccc1)c1ccc(Oc2ncccn2)cc1 | inactive
CCCCC1(Cc2cccc([N+](=O)[O-])c2)C(=O)N(c2ccccc2)N(c2ccccc2)C1=O | inactive
COc1ccc(C2/C=C\CN(Cc3ccc(N(C)C)cc3)CC(=O)N2Cc2ccc(F)cc2)cc1 (stereo not drawn) | active: 31.6 µM
CSCSC1=C(C#N)C(c2ccc(Cl)cc2)C(C(C)=O)=C(C)N1 (stereo not drawn) | inactive
COc1ccc(Cn2c(=O)[nH]c3cc(C(=O)NCCCN4CCCC4=O)ccc3c2=O)cc1 | inconclusive: 3.98 µM [inhibitor, single point]
Cc1ccccc1CC(=O)N1CCCC1 | inactive
CCC1=C(c2ccc(C)cc2)S(=O)(=O)N=C1N1CCC(C(=O)NCc2ccc(N(C)C)cc2)CC1 | inconclusive: 31.6 µM [inhibitor, full curve]
COc1ccc(/C=C2\SC(N)=NC2=O)cc1Br | inconclusive: 89.1 µM [inhibitor, single point]
CCNc1nc(-c2cc3ccccc3o2)cs1 | inconclusive: 89.1 µM [inhibitor, single point]
O=[N+]([O-])c1ccccc1CN1CCN(Cc2ccccn2)CC1 | active: 50.1 µM

Compound | Potency
N#Cc1c(-c2ccccc2)nc(SCc2cccc(C(F)(F)F)c2)[nH]c1=O | inconclusive: 56.2 µM [inhibitor, partial curve]
O=S(=O)(Nc1cc(Sc2cccc3cccnc23)c(O)c2ccccc12)c1ccc(F)cc1 | inconclusive: 35.5 µM [inhibitor, full curve]
COc1ccccc1CNCc1cccc(Oc2ccccc2)c1 | active: 25.1 µM
C/C(=N\NC(=O)c1nnn(-c2nonc2N)c1CN(C)c1ccccc1)c1cccc(O)c1 | inconclusive: 56.2 µM [inhibitor, partial curve]
O=C(Nc1ccc2oc(-c3cc(Br)ccc3Cl)nc2c1)c1cc2ccccc2o1 | active: 79.4 µM
CC(C)CC(=O)Nc1nnc(S(=O)(=O)N(CC(C)C)c2ccccc2)s1 | inconclusive: 89.1 µM [inhibitor, single point]
Cc1ccc(CNC(=O)CCC(=O)N2CC3CCCN3c3ccccc32)cc1 (stereo not drawn) | inconclusive: 56.2 µM [inhibitor, partial curve]
NS(=O)(=O)c1cc(C(=O)NC2CCSc3ccccc32)ccc1Cl (stereo not drawn) | inconclusive: 1.41 µM [inhibitor, full curve]
CCOc1ccc(NC(=O)C2CCN(C(=O)N3CC(C)Oc4ccc(Cl)cc43)CC2)cc1 (stereo not drawn) | active: 79.4 µM
COc1ccc2sc(-c3ccc(N(C)C)cc3)c(-c3cnc(OC)nc3)c2c1 | inconclusive: 20 µM [inhibitor, partial curve]
Cn1c(CC(=O)Nc2ccccc2Cl)nnc1SCC(=O)Nc1nncs1 | inactive
Cc1nc2c(cnn2-c2ccccc2Cl)c(=O)n1-c1ccc(N2CCC(C)CC2)cc1 | inconclusive: 50.1 µM [inhibitor, partial curve]
NNC(=O)CNS(=O)(=O)c1ccc([N+](=O)[O-])cc1 | inconclusive: 89.1 µM [inhibitor, single point]
CC(C)C(=O)OCC(=O)Nc1ccc(N=Nc2ccccc2)cc1 | active: 39.8 µM
CC(=O)c1sc2c(c1OC(=O)c1ccc(Cl)cc1Cl)c(=O)n(-c1ccccc1)c(=S)n2-c1ccccc1 | inconclusive: 31.6 µM [inhibitor, partial curve, poor fit]
COC(=O)N/N=C/c1cc(Br)ccc1O | inactive
COc1ccccc1-n1cnnc1SCC(=O)Nc1cccc(S(N)(=O)=O)c1 | inactive
Cc1ccc(N2NC(=O)/C(=C/c3ccc(-c4ccc(Cl)c(C(=O)O)c4)o3)C2=O)cc1C | inconclusive: 89.1 µM [inhibitor, single point]
CN1CCN(C(=S)c2cn(CCOc3ccccc3F)c3ccccc23)CC1 | inconclusive: 50.1 µM [inhibitor, partial curve]
NC(=S)N/N=C1\CC(n2nnn(-c3cccc(Cl)c3)c2=S)C2COC1O2 (stereo not drawn) | inconclusive: 35.5 µM [inhibitor, partial curve]
CC1CN(C2CCN(C(=O)c3ccccc3Cl)CC2)CC(C)O1 (stereo not drawn) | inconclusive: 50.1 µM [inhibitor, partial curve]
CC(=O)c1ccc(NC(=O)CCc2c(C)nn(-c3ccc(N4CCOCC4)nn3)c2C)cc1 | inconclusive: 56.2 µM [inhibitor, partial curve] and inconclusive: 44.7 µM [inhibitor, partial curve]
